# The supplement of paper PMC10441789
# The other results are listed elsewhere or left out. Antibody binding of pooled human sera (four to six donors per pool; dilution not stated) to peptides of the Trypanosoma cruzi antigen TSSA on microarrays. Quantile-normalised fluorescence in arbitrary units, mean of duplicate arrays; higher = more binding. No active / inactive call. The uninfected pools are read here as the healthy donors of the same country. The strongest signals lie near the top of the scale (about 60,000).
# Assays:
# Assay in all cases: antibody binding signal (normalised fluorescence) (arbitrary fluorescence units); higher = stronger serum antibody binding to peptide
# [1] = tested on: pooled sera of chronic Chagas disease patients, Argentina
# Description: (§1)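 Microarray of 15-residue peptides over residues 30-55 of Trypanosoma cruzi TSSAII, each with 1 to 10 substitutions at naturally variable positions, probed with one serum pool per country.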
# [2] = tested on: pooled sera of chronic Chagas disease patients, Bolivia
# Description: as §1
# [3] = tested on: pooled sera of chronic Chagas disease patients, Brazil
# Description: as §1
# [4] = tested on: pooled sera of chronic Chagas disease patients, Colombia
# Description: as §1
# [5] = tested on: pooled sera of chronic Chagas disease patients, Mexico
# Description: as §1
# [6] = tested on: pooled sera of chronic Chagas disease patients, USA
# Description: as §1
# [7] = tested on: pooled sera of uninfected people, Argentina
# Description: as §1
# [8] = tested on: pooled sera of uninfected people, Bolivia
# Description: as §1
# [9] = tested on: pooled sera of uninfected people, Brazil
# Description: as §1
# [10] = tested on: pooled sera of uninfected people, Colombia
# Description: as §1
# [11] = tested on: pooled sera of uninfected people, Mexico
# Description: as §1
# [12] = tested on: pooled sera of uninfected people, USA
# Description: as §1
Sequence,antibody binding signal [1],antibody binding signal [2],antibody binding signal [3],antibody binding signal [4],antibody binding signal [5],antibody binding signal [6],antibody binding signal [7],antibody binding signal [8],antibody binding signal [9],antibody binding signal [10],antibody binding signal [11],antibody binding signal [12]
DNKAATGGTPSPSGA,476,1010,391,335,480,198,290,170,668,462,243,151
ENKTAAGGTPSPSGA,1530,2110,383,6360,419,1850,266,202,1790,396,1600,195
GKEKKTAAGGTPSPS,1580,232,216,4490,746,1850,128,82.7,334,162,118,114
SGKEKKAAAGGAPSP,2900,309,2400,5860,5420,5050,155,87.5,117,112,80.2,161
ENKPAAGEAPSQPGA,8820,28000,45700,312,276,17300,200,340,177,130,173,176
TPPSGKDNKPAAGGT,7750,7250,21300,437,38500,12500,420,1220,565,175,254,196
DNKAAAGETPSQSGA,306,542,15100,143,136,286,88.2,318,159,166,416,99
KDKKAATGGTPSQSG,306,271,180,221,917,339,185,77.3,174,243,228,105
ISTPPSGTENKTATG,48200,51400,51000,452,4430,30500,4470,652,630,1150,876,704
GKENKPAAGEAPSQS,5170,7340,30600,6860,7370,20600,797,353,133,128,280,101
ENKAATGGTPSQSGA,437,2080,602,728,436,389,285,145,736,212,331,165
DKKPAAGGAPSPPGA,502,266,630,4970,404,1310,272,232,463,176,120,220
KENKTAAGETPSQPG,504,707,30100,852,351,2910,171,394,168,220,154,189
TSSTPPSGKDNKAAT,8690,4680,4430,698,14900,1790,275,471,118,180,129,150
TEKKTAAGGTPSPPG,1140,236,213,13900,717,2710,136,123,1460,474,481,296
PPSGKDKKAATGEAP,16000,3870,9830,1240,16500,17800,413,299,101,349,85.7,117
TSSTPPSGTDKKAAA,35200,3880,36200,8380,44700,5130,1650,216,167,279,1410,586
GKDKKAAAGGAPSQP,240,215,532,1460,676,379,106,79.3,92.8,85.9,71.8,79
TENKPATGGAPSPSG,44100,20700,6150,313,1010,3700,346,1150,555,205,297,296
PSGKEKKAAAGEAPS,8820,2160,9800,12000,12500,12300,442,284,103,173,94.4,181
